The source of these data is PubChem BioAssay AID463173 (ICCB-Longwood Screening Facility, Harvard Medical School, 2010).

Molecules are shown by their SMILES. About 4,300 (8.3%) of roughly 52,000 compounds were called active. Cut-off read from the data, not from the text of the source: active = survival mostly below about 52% (no sharp cut-off); inactive = mostly above about 56%. This is one part of the list.

For the test, the system named is DeltatarO mutant. Description: growth inhibition of S. aureus wild type versus tarO mutant, primary screen, teichoic acid synthesis inhibitors, RN4220, OD600 (AID 463173). To be noted: OD600, 18 h, stronger effect = lower value, screened at 18.75 µg/mL (by protocol).
In the case of `O=C(Nc1ccccc1)c1cc2c(-c3ccccc3)nn(-c3ccccc3)c2s1`, the survival is active: 44%.
On to `CCCCNC(=O)C1(NC(=O)Nc2ccccc2)CCCCC1`, for which the survival was inactive: 74%.
As for `CCOc1ccc(OC(=O)c2sc3ncn(Cc4cccc(F)c4)c(=O)c3c2C)cc1`, the survival is inactive: 79%.
With `O=C(CSc1c2c(nc3ccc(Cl)cc13)CCCC2)N1CCN(c2ccc(Cl)cc2)CC1` the figure was active: 31%; with `CSc1ccc(CCNS(=O)(=O)c2cc(-c3cc(C)no3)ccc2C)cc1`, inactive: 88%; with `CCOC(=O)c1cnc2cc(Cl)c(OC)cc2c1Nc1ccc(Br)cc1C`, inactive: 102%.
With `COc1ccccc1C(=O)NC1(C(F)(F)F)C(=O)NC(C)=C1C#N` (stereo not given) the figure was inactive: 69%.
Regarding `COc1ccccc1N1CCN(C(=O)C2CCN(S(=O)(=O)c3cccs3)CC2)CC1`, the survival was inactive: 64%.
As for `Cc1ccccc1NC(=O)Cn1nnc(C(=O)NCc2ccco2)c1N`, the survival is inactive: 96%.
As to `COc1cc(OC)c(NC(=O)c2nn(C)c3c2COc2ccccc2-3)cc1Cl`, the survival was inactive: 104%.
In the case of `CCN(CC)S(=O)(=O)c1ccc2c(c1)N(CC(=O)Nc1cccc(C(C)=O)c1)C(=O)CO2`, the survival was inactive: 84%.
Take `O=C(Nc1ccc2nc[nH]c2c1)C1CCCCC1`: the survival was inactive: 102%.
As for `O=C(COCc1cc(-c2ccc3c(c2)OCO3)on1)Nc1cccc(O)c1`, the survival is inactive: 99%.
The same measure for `CCC(=O)N1c2ccccc2CC1C(=O)NCCCN1CCN(c2ccc(F)cc2)CC1` (stereo not given): inactive: 124%; for `COc1ccc(Cl)cc1S(=O)(=O)Nc1ccc2c(c1)n(C)c(=O)n2C`: inactive: 67%.
Consider `Cc1cccc(C(=O)n2nc(-c3ccco3)nc2NCc2ccccc2)c1`, for which the survival is inactive: 63%.
`COc1ccc(OC)c(NC(=O)C(Cc2ccccc2)NS(=O)(=O)c2ccc3c(c2)CCC(=O)N3)c1` (stereo not given): the survival is inactive: 85%.
In the case of `CCn1cc2nc(SCc3c(F)cccc3Cl)n(CCc3ccccc3)c(=O)c2n1`, the survival is active: 52%.
The same measure for `CNC(=O)C1CCC(Cn2c(=O)c3sccc3n(CC(=O)Nc3ccc(C)cc3C)c2=O)CC1` (stereo not given): inactive: 87%; for `Cc1cccc(NC(=O)CSc2nc(=O)n(CCN3CCOCC3)c3c2CCC3)c1`: inactive: 86%.
Turning to `Cc1ccc(-n2ncc(C(=O)NCCN3CCc4ccccc4C3)c2C2CCN(C(=O)OC(C)(C)C)CC2)c(C)c1`, the survival is inactive: 64%.
The same measure for `O=C(CN1C(=O)COc2ccc(S(=O)(=O)NC3CCCC3)cc21)Nc1ccc(F)c(Cl)c1`: inactive: 124%.
Consider `Cc1ccc2nc(-c3ccc(N4CCOCC4)cc3)c(Nc3ccccc3C)n2c1`, for which the survival was inactive: 71%.
With `O=C(NCCn1cc(SCc2ccc(C(F)(F)F)cc2)c2ccccc21)c1cccs1` the figure was inactive: 95%; with `COc1ccc(-n2nc3c(N4CCCC(C(=O)NCc5ccccc5C)C4)nnc(C)c3c2C)cc1` (stereo not given), inactive: 90%.
With `Cc1nnc(SCC(=O)NCc2cccc(F)c2)c2nn(-c3ccccc3)c(C)c12`, the survival is inactive: 67%.
In the case of `N#CCOc1nc(OCC#N)nc(OCC#N)n1`, the survival is active: 1%.
As to `CCCS(=O)(=O)NCCc1sc2nc(-c3ccc(Cl)cc3)nn2c1C`, the survival was inactive: 70%.
With `NC(=O)C1CCN(C(=O)c2ccccc2NC(=O)c2nsc3ccccc23)CC1` the figure was inactive: 126%; with `CCOC(=O)c1c(NC(=O)c2cc(=O)c3c(C)cc(C)cc3o2)sc(C)c1C`, inactive: 61%; with `COc1cccc(NC(=O)CN2C(=O)COc3ccc(S(=O)(=O)N4CCOCC4)cc32)c1`, inactive: 81%.
The same measure for `CN(c1nnc(NC(=O)Nc2ccc(Br)cc2)s1)C1CCCCC1`: inactive: 62%.
With `COc1ccccc1CNc1ncnc2onc(-c3ccc(Cl)cc3)c12`, the survival was inactive: 88%.
`Cc1[nH]c2ccccc2c1C1(O)C(=O)N(Cc2ccccc2)c2ccc(Br)cc21` (stereo not given): the survival is active: 3%.
`Cc1ccc(NC(=O)Nc2csc3c2CCCC3)c(C)c1`: the survival was inactive: 63%.
On to `COC(=O)COc1ccc(S(=O)(=O)N2CCN(c3ccccc3F)CC2)cc1Cl`, for which the survival is inactive: 89%.
For `CCc1ccc(NC(=O)c2sc3nc(-c4ccccc4)cn3c2C)cc1`, the survival is inactive: 107%.
Consider `CCN1CCN(C(c2cccc(OC)c2)c2c(O)cc(C)n(Cc3ccco3)c2=O)CC1` (stereo not given), for which the survival is inactive: 120%.
For `O=C(Oc1ccccc1OC(=O)N1CCCCC1)N1CCCCC1`, the survival is inactive: 79%.
As for `CCN(CC)CCNC(=O)Cn1cnc2sc(C)c(S(=O)(=O)N3CCN(c4ccccc4OC)CC3)c2c1=O`, the survival was inactive: 83%.
Consider `CCOc1ccc(NC(=O)CSc2oc(-c3ccco3)nc2S(=O)(=O)c2ccc(Cl)cc2)cc1`, for which the survival was inactive: 119%.
The same measure for `COc1cccc(C2C=C(c3ccc(C)cc3)Nc3c(C(=O)Nc4ccc(F)cc4)cnn32)c1OC` (stereo not given): active: 0%; for `O=C(Nc1ccccc1C(F)(F)F)N1Cc2ccccc2Oc2ncccc21`: inactive: 73%; for `CC(NC(=O)c1ccc(Cn2c(SCc3ccccc3)nc3cccnc32)cc1)c1ccccc1` (stereo not given): inactive: 75%.
Consider `COc1ccc(CN(C(=O)c2ccc(OCC(C)C)cc2)C2CCS(=O)(=O)C2)cc1` (stereo not given), for which the survival is inactive: 93%.
Consider `COc1ccccc1Nc1nn2c(=O)c3ccc(C(=O)NC4CCCCC4)cc3nc2s1`, for which the survival is inactive: 74%.
For `CCOc1ccc(N(CC(=O)NCc2ccc(C)cc2)S(=O)(=O)c2c(C)[nH]c(=O)[nH]c2=O)cc1`, the survival is inactive: 84%.
With `Brc1ccc(-c2csc(-c3nc(-c4ccc(Br)s4)cs3)n2)cc1` the figure was inactive: 81%; with `CCOC(=O)N1CCc2c(sc(NCc3ccc(N(C)C)cc3)c2C(=O)Nc2ccccc2OCC)C1`, inactive: 101%.
`CCN(CC)C(=O)c1ccc2nc(N)sc2c1`: the survival is inactive: 101%.
For the molecule `CC(=O)N1c2ccc(S(=O)(=O)NCC3CCC(C(=O)Nc4cccc(F)c4)CC3)cc2CC1C` (stereo not given), the survival is inactive: 93%.
`CCN(CC)c1nc(Nc2ccc(OC)cc2)nc(Nc2ccc(OC)cc2)n1`: the survival is inactive: 74%.
Consider `CCc1cccc(-n2nnc(-c3nc(-c4ccc5c(c4)OCO5)no3)c2C)c1`, for which the survival was inactive: 87%.
As for `Cc1cccc(C(=O)NCc2nnc(SCC(=O)Nc3ccccc3F)n2-c2ccccc2)c1`, the survival is inactive: 72%.
On to `CC(C)C(c1nnnn1Cc1ccccc1)N1CCCc2ccccc21` (stereo not given), for which the survival was inactive: 101%.
As for `COc1ccc(NC(=O)CSc2nc(-c3ccccc3)c3ccccc3n2)cc1`, the survival is inactive: 78%.
In the case of `CCOc1ccc(-c2n[nH]c3c2C(c2cccs2)N(c2ccc(Br)cc2)C3=O)cc1` (stereo not given), the survival is inactive: 79%.
For the molecule `CCOC(=O)c1cc(-c2ccc(OC)cc2)n(CCC(=O)NC2CCC(C)CC2)c1C` (stereo not given), the survival is inactive: 98%.
The same measure for `COc1ccc(N2CCN(C(=O)Nc3ccc(Cl)cc3)CC2)cc1`: inactive: 168%.
As for `CCCCn1c(SCC(N)=O)nnc1-c1ccco1`, the survival was inactive: 103%.
As to `Cc1cccc(NC(=O)CSc2nc3c(sc4ccccc43)c(=O)n2CCCC(=O)NC2CCCC2)c1`, the survival is inactive: 87%.
The same measure for `Cc1cccc(C(=O)Nc2ccc(S(=O)(=O)N(Cc3ccccc3)c3ccccc3)cc2)c1`: inactive: 80%.
In the case of `O=C(C1COc2ccccc2O1)N1CCCC1` (stereo not given), the survival was inactive: 96%.
With `COC(=O)Cn1cc(C(=O)c2cccs2)c2ccccc21` the figure was inactive: 82%; with `O=C1CSC(=O)N1CCOc1ccc(F)cc1`, inactive: 80%; with `CCOC(=O)Cn1cnc2scc(-c3ccccc3)c2c1=O`, inactive: 85%.
Turning to `Nc1cnc2cccc3c2c1-c1ccccc1C3=O`, the survival was inactive: 86%.
As for `COc1ccc(C(=O)NCCn2cc(SC(C)c3ccccc3)c3ccccc32)cc1OC` (stereo not given), the survival was inactive: 61%.
The same measure for `Cc1ccc(N(C)C(=O)CCS(=O)(=O)c2cc3c(cc2Cl)NC(=O)CO3)cc1`: inactive: 84%; for `COc1cc(NC(=O)NCCN2CCN(c3ccccc3)CC2)cc(OC)c1OC`: inactive: 94%; for `Cc1cc(C)c(S(=O)(=O)Nc2ccc(-c3ccc(N4CCCCCC4)nn3)cc2)cc1C`: inactive: 65%.
`CCN(CC)c1ccc2cc(-c3nc(-c4ccccc4F)no3)c(=O)oc2c1`: the survival is inactive: 101%.
`Cc1nc2ccn(Cc3cccnc3)c(=O)c2cc1C(=O)Nc1ccc(F)cc1F`: the survival is inactive: 92%.
Turning to `COCCCNC(=O)c1ccc(C)c(-n2c(C)nc3cccnc32)c1`, the survival was inactive: 89%.
Regarding `O=S(=O)(Nc1ccc(F)cc1F)c1ccc(-n2cccn2)cc1`, the survival is inactive: 70%.
For the molecule `CCOc1ccc(-c2nnc(SCC(=O)c3ccc(Br)cc3)n2-c2ccccc2)cc1`, the survival is inactive: 72%.
For `O=C(CN1C(=O)CCc2cc(S(=O)(=O)N3CCOCC3)ccc21)NCc1ccc(Cl)cc1`, the survival was inactive: 73%.
As to `CCOc1ccc(CCNC(=O)c2cc3c(s2)-c2c(C)cccc2OC3)cc1`, the survival was inactive: 98%.
Turning to `CCc1ccc(NC(=O)Nc2nnc(N(C)C3CCCCC3)s2)cc1`, the survival is inactive: 112%.
With `CC(=O)c1ccc(NC(=O)Cn2c(=O)nc(-c3ccccc3)c3cc(Cl)ccc32)cc1` the figure was inactive: 115%; with `O=C(Nc1cccc(C(F)(F)F)c1)c1ccc2snnc2c1`, inactive: 111%; with `Nc1ncnc2c1ncn2C1OC(C(=O)O)C(O)C1O` (stereo not given), inactive: 92%.
For `CCC(C)NC(=O)CSc1nc2cc3c(cc2c(=O)n1Cc1ccc(C(=O)NCCc2ccc(OC)c(OC)c2)cc1)OCO3` (stereo not given), the survival was inactive: 85%.
`Cc1cccc(N2CCN(C(=O)C3CCN(c4ncnc5c4nc4n5CCCCC4)CC3)CC2)c1C`: the survival is inactive: 70%.
Turning to `COc1cccc(NC(=O)c2oc3ccccc3c2NC(=O)c2cc3ccccc3o2)c1`, the survival was inactive: 51%.
In the case of `Cc1ccc(NC(=O)CN2C(=O)COc3ccc(S(=O)(=O)Nc4ccccc4)cc32)c(C)c1`, the survival is inactive: 54%.
As for `COc1ccc(CNC(=O)c2ccc3nc(C(C)C)oc3c2)cc1OC`, the survival is inactive: 68%.
As for `Cc1cc(C)c(NC(=O)CSc2nc3ccncc3[nH]2)c(C)c1`, the survival is inactive: 119%.
Turning to `O=C(Nc1cccc2ccccc12)OC1C=CS(=O)(=O)C1` (stereo not given), the survival was inactive: 96%.
For the molecule `CCOC(=O)Cn1c(=O)oc2cc(S(=O)(=O)N3CCC(C(=O)OCC)CC3)ccc21`, the survival was inactive: 86%.
